Screen size: about 310,000 compounds; about 14,000 (4.5%) showed an effect of 50% or more. Effects have a minus sign here. This is one part of the list.
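Also: peak tail current of the secondary pulse compared with the same well before compound.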

The target of this test is human ether-à-go-go-related gene (hERG) potassium channel (human, UniProt Q12809). The test can be described thus: primary screen, population patch clamp on CHO cells stably expressing hERG.
Sequence of human ether-à-go-go-related gene (hERG) potassium channel (Q12809 whole entry, looked up): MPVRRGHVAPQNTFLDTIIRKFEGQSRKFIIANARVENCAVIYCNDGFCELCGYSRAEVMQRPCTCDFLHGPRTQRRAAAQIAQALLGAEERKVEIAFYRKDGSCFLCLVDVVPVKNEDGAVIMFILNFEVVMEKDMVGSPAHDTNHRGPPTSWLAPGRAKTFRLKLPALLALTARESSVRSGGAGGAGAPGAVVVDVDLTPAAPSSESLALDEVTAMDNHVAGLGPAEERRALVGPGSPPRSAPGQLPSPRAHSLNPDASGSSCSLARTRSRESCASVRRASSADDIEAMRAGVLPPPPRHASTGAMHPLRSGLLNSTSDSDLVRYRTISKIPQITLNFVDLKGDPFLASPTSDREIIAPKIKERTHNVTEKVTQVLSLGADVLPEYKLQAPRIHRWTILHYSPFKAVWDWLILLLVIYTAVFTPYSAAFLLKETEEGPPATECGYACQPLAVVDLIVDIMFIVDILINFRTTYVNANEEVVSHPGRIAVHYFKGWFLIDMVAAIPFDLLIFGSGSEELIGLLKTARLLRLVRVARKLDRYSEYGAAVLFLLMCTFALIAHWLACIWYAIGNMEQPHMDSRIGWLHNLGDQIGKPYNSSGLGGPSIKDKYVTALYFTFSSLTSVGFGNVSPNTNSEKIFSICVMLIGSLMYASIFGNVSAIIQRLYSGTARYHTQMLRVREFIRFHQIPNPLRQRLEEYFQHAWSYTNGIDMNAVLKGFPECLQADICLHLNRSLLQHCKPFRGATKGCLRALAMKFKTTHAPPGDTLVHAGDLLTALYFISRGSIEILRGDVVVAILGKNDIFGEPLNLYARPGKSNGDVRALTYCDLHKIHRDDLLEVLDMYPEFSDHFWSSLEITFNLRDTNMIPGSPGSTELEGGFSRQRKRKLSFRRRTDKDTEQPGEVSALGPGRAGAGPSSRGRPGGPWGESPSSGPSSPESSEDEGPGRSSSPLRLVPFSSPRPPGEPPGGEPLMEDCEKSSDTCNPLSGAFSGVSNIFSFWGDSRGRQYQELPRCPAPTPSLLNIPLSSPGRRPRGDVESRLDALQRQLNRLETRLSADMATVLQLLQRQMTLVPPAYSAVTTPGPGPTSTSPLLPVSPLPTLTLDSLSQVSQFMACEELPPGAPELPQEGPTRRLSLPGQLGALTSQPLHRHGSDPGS
On to `Cc1cc(C)nc(NS(=O)(=O)c2ccc(NC(=O)NC3CCCCC3)cc2)n1`, for which the “hERG current change (%, negative = inhibition) at 10uM” value amounted to 5.67%.

In the case of `Cc1[nH]n(-c2ccc([N+](=O)[O-])cc2)c(=O)c1C=NCCN1CCN(C(=O)c2cccc(F)c2)CC1`, the “hERG current change (%, negative = inhibition) at 10uM” value is listed as -73.4%.

Turning to `COC(=O)c1cc(OC)c(OC)cc1NC(=O)c1ccccc1C`, the “hERG current change (%, negative = inhibition) at 10uM” value is recorded as 2.02%.

Turning to `CCC(c1nnnn1C1CCCC1)N1CCN(C(=O)c2ccco2)CC1.Cl` (stereo not shown), the “hERG current change (%, negative = inhibition) at 10uM” value is recorded as -10.6%.

On to `CC(C)n1c(C(O)c2ccccc2)nc2ccccc21` (stereo not shown), for which the “hERG current change (%, negative = inhibition) at 10uM” value is listed as 4.59%.

`CC(C)(C)NC(=O)COC(=O)Cc1ccc(Cl)cc1`: the “hERG current change (%, negative = inhibition) at 10uM” value came out at 5.79%.

As to `CCc1ccc2nc(N(CCCN(C)C)C(=O)c3ccc(S(=O)(=O)N4CCc5ccccc5C4)cc3)sc2c1.Cl`, the “hERG current change (%, negative = inhibition) at 10uM” value is -7.91%.

Turning to `Cl.Clc1cccc(CSc2nnc([C@@H]3CCCN3)o2)c1`, the “hERG current change (%, negative = inhibition) at 10uM” value came to 1.31%.

As to `Brc1ccc(/C=N/Nc2nc3ccccc3o2)cc1`, the “hERG current change (%, negative = inhibition) at 10uM” value is 17%.

For the compound `Cc1cc(N2CCN(c3cccc(C(F)(F)F)c3)CC2)n2nc(C)nc2n1`, the “hERG current change (%, negative = inhibition) at 10uM” value is -61.9%.

Take `O=C(Nc1nnc(/C=C/c2ccccc2)s1)c1ccco1`: the “hERG current change (%, negative = inhibition) at 10uM” value was 6.8%.

For the compound `CC(=O)Nc1ccccc1-c1nc2ccccc2nc1OCC(=O)c1ccc(Br)cc1`, the “hERG current change (%, negative = inhibition) at 10uM” value is -19.2%.

On to `C#CCN1C(=O)S/C(=C/C=C/c2ccc(N(C)C)cc2)C1=O`, for which the “hERG current change (%, negative = inhibition) at 10uM” value amounted to 16.9%.

With `Cc1ccccc1NC(=O)c1cccc(S(=O)(=O)N2CCOCC2)c1`, the “hERG current change (%, negative = inhibition) at 10uM” value was 31.9%.

Consider `CCN(CC(=O)Nc1ccc2c(c1)CCC2)Cc1nc2ccccc2c(=O)[nH]1`, for which the “hERG current change (%, negative = inhibition) at 10uM” value is reported as -40.8%.

`Cc1cc(F)ccc1NC(=O)CCc1c(C)nn(-c2ccc(N3CCCCC3)nn2)c1C`: the “hERG current change (%, negative = inhibition) at 10uM” value came out at 13.5%.

In the case of `COc1ccc(CCNC(=O)C2CC(c3cccc([N+](=O)[O-])c3)=NO2)cc1` (stereo not shown), the “hERG current change (%, negative = inhibition) at 10uM” value is recorded as -21.8%.

Consider `Cn1c(C(=O)NCCCN2CCCC2=O)cc2c(=O)n(C)c3ccccc3c21`, for which the “hERG current change (%, negative = inhibition) at 10uM” value is reported as -8.51%.

As for `CCN1CCN(CCCNC(=O)c2ccc3c(c2)N(Cc2ccc(C)cc2)CCS3)CC1`, the “hERG current change (%, negative = inhibition) at 10uM” value is -44.5%.

With `CN1CCN(S(=O)(=O)c2ccc(NC(=S)NC(=O)C3CCCCC3)cc2)CC1`, the “hERG current change (%, negative = inhibition) at 10uM” value is recorded as -0.0441%.

For `COc1ccc(NC(=O)[C@H](C)NC(=O)C2CCN(S(=O)(=O)c3ccc(C)cc3)CC2)cc1OC`, the “hERG current change (%, negative = inhibition) at 10uM” value amounted to 3.13%.

Take `CCN(CC)C(=O)CSc1nnc(CCCCCNC(=O)OC(C)(C)C)o1`: the “hERG current change (%, negative = inhibition) at 10uM” value is listed as -4.74%.

As for `O=C(Cc1nnc(NC(=O)c2ccccc2)s1)N/N=C/c1ccc(O)cc1`, the “hERG current change (%, negative = inhibition) at 10uM” value came to 16.1%.

In the case of `CC(C)C[C@H](N)c1cn([C@@H](CCCCN)C(=O)N2CCNCC2)nn1.Cl`, the “hERG current change (%, negative = inhibition) at 10uM” value came out at 12.1%.

For the compound `COc1ccc(CCn2c(=N)c(C(=O)NC3CCCCC3)cc3c(=O)n4ccccc4nc32)cc1`, the “hERG current change (%, negative = inhibition) at 10uM” value is -79.4%.

Take `O=S(=O)(c1ccc(NC(=S)NCc2ccco2)cc1)N1CCCC1`: the “hERG current change (%, negative = inhibition) at 10uM” value was determined as 10.1%.

For the compound `Cc1cc(C)n2[nH]c(=O)c(N=Nc3ccccc3)c2n1`, the “hERG current change (%, negative = inhibition) at 10uM” value came to 9.18%.

On to `O=C(N/N=C/c1ccc(-c2ccc([N+](=O)[O-])cc2)o1)c1cccnc1`, for which the “hERG current change (%, negative = inhibition) at 10uM” value is -10.6%.

For the compound `COc1ccc(NC(=O)c2cccs2)c([N+](=O)[O-])c1`, the “hERG current change (%, negative = inhibition) at 10uM” value is -3.28%.

As for `Cc1cc(C)n(-c2ccc(C(=O)Nc3nnc(C)s3)cc2)n1`, the “hERG current change (%, negative = inhibition) at 10uM” value was 10.9%.

As to `CC(CCc1ccccc1)NC(=O)c1cnc(Cl)c(Cl)c1` (stereo not shown), the “hERG current change (%, negative = inhibition) at 10uM” value turned out to be 2.02%.

Take `Cc1ccc(-c2onc3ccc(Br)cc23)cc1`: the “hERG current change (%, negative = inhibition) at 10uM” value amounted to 13.8%.

`CC(C)c1ccc(-c2nc(N3CCOCC3)[nH]c(=O)c2C#N)cc1`: the “hERG current change (%, negative = inhibition) at 10uM” value stood at 1.33%.

For the compound `COCCN(C(=O)COC(=O)CCSc1ccc(F)cc1)c1c(N)n(Cc2ccccc2)c(=O)[nH]c1=O`, the “hERG current change (%, negative = inhibition) at 10uM” value is 1.82%.

For `Cc1ccc(C(=O)/C=C/c2ccc(Br)cc2)o1`, the “hERG current change (%, negative = inhibition) at 10uM” value was -5.18%.

In the case of `Nc1nc(SCC(=O)O)[nH]c(=O)c1NC(=O)c1ccccc1F`, the “hERG current change (%, negative = inhibition) at 10uM” value turned out to be 24.2%.

Turning to `CCC(CC)C(=O)Nc1cccc(SC)c1`, the “hERG current change (%, negative = inhibition) at 10uM” value was found to be 12.6%.

For the compound `CC(C)CC(NC(=O)/C(=C\c1ccco1)NC(=O)c1ccco1)C(=O)O` (stereo not shown), the “hERG current change (%, negative = inhibition) at 10uM” value was determined as 16.6%.

Turning to `O=C(N/N=C/c1ccco1)c1ccc(NC(=O)C2CCCCC2)cc1`, the “hERG current change (%, negative = inhibition) at 10uM” value was 1.43%.

Take `Cn1nc(C(=O)NCc2cccc(F)c2)cc1C(=O)NCc1cccc(F)c1`: the “hERG current change (%, negative = inhibition) at 10uM” value is recorded as -14.2%.

With `COc1cc2c(cc1OC)C(C)N(S(=O)(=O)c1cnc(Cl)c(Cl)c1)CC2` (stereo not shown), the “hERG current change (%, negative = inhibition) at 10uM” value was -1.43%.

In the case of `COc1ccc(Cl)cc1NC(=O)Nc1cnccn1`, the “hERG current change (%, negative = inhibition) at 10uM” value turned out to be 15.8%.

Take `CCn1cc(C(=O)N2CCN(Cc3ccc4c(c3)OCO4)CC2)c(=O)c2ccc(C)nc21`: the “hERG current change (%, negative = inhibition) at 10uM” value is reported as -1.84%.

The values are drawn from PMC4336329 (PLoS ONE, 2015).
